Reference: the supplement of paper PMC4967469
A lower IC50 marks a more sensitive line; a limit (>, <) means that the fit lies beyond the doses tested. For AUC the same curve is integrated over the 256-fold range of doses and scaled to a fraction; it is 1 without any effect and falls as sensitivity rises. For some assays here: Where the top dose is marked as inferred, it is not printed in the source and was worked back from the curve model. For some assays here: Where an entry number is given, a second screen of the drug exists; the two often differ.

Key:
Test in all cases: Viability of human cancer cell lines after 72 h of drug (GDSC screen)
Y-39983 = compound: C[C@@H](N)c1ccc(C(=O)Nc2ccnc3[nH]ccc23)cc1 [Y-39983]; conditions: top dose 20 µM; top dose inferred
Method: (§1)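 Human cancer cell lines in 384-well plates, medium with 10% serum, drug for 72 h over a 256-fold dose range (nine 2-fold or five 4-fold steps up to the top dose). Adherent lines were fixed and stained with the nucleic acid dye Syto60, suspension lines read with resazurin; signal relative to control wells, capped at 0 and 100%. One two-parameter sigmoid per drug and line, fitted in a mixed model over all curves with the slope shared within a line.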

PLX4720 = compound: CCCS(=O)(=O)Nc1ccc(F)c(C(=O)c2c[nH]c3ncc(Cl)cc23)c1F [PLX4720]; conditions: top dose 10 µM
Method: as §1

PHA-793887 = compound: CC(C)CC(=O)Nc1n[nH]c2c1CN(C(=O)C1CCN(C)CC1)C2(C)C [PHA-793887]; conditions: top dose 10.24 µM
Method: as §1

Epothilone B = compound: C/C(=C\c1csc(C)n1)[C@@H]1C[C@@H]2O[C@]2(C)CCC[C@H](C)[C@H](O)[C@@H](C)C(=O)C(C)(C)[C@@H](O)CC(=O)O1 [Epothilone B]; conditions: top dose 0.032 µM; top dose inferred
Method: as §1

TPCA-1 = compound: NC(=O)Nc1sc(-c2ccc(F)cc2)cc1C(N)=O [TPCA-1]; conditions: top dose 20 µM
Method: as §1

[1] = screen: GDSC drug entry 1371, top dose inferred

Row | Cell Line | AUC (Y-39983) | IC50 (Y-39983) | AUC (PLX4720; screen: GDSC drug entry 1036) | IC50 (PLX4720; screen: GDSC drug entry 1036) | AUC (PLX4720; [1]) | IC50 (PLX4720; [1]) | AUC (PHA-793887) | IC50 (PHA-793887) | AUC (Epothilone B) | IC50 (Epothilone B) | AUC (TPCA-1) | IC50 (TPCA-1)
1 | G-402 (soft tissue, adherent) | 0.931 | > 20 µM | 0.921 | > 10 µM | 0.951 | > 10 µM | 0.79 | 6.31 µM | 0.636 | 5.41 nM | 0.875 | > 20 µM
2 | G-MEL (melanoma, adherent) | 0.976 | > 20 µM | – | – | 0.406 | 0.347 µM | 0.892 | > 10.2 µM | 0.917 | > 32 nM | 0.848 | 14.6 µM
3 | GAMG (glioma, adherent) | 0.91 | > 20 µM | 0.9 | > 10 µM | 0.98 | > 10 µM | 0.655 | 1.77 µM | 0.471 | 1.66 nM | 0.844 | 15.3 µM
4 | GCT (soft tissue, adherent) | 0.981 | > 20 µM | – | – | 0.988 | > 10 µM | 0.967 | > 10.2 µM | 0.68 | 6.12 nM | 0.969 | > 20 µM
5 | GMS-10 (glioma, adherent) | 0.987 | > 20 µM | 0.958 | > 10 µM | – | – | 0.944 | > 10.2 µM | 0.932 | > 32 nM | 0.958 | > 20 µM
6 | GP5d (large intestine, adherent) | 0.985 | > 20 µM | – | – | 0.99 | > 10 µM | 0.895 | 10.1 µM | 0.587 | 3.37 nM | 0.874 | 16 µM
7 | H4 (glioma, adherent) | 0.985 | > 20 µM | 0.838 | 6.66 µM | 0.962 | > 10 µM | 0.919 | > 10.2 µM | 0.427 | 1.27 nM | 0.888 | > 20 µM
8 | H513 (mesothelioma, semi-adherent) | 0.986 | > 20 µM | 0.98 | > 10 µM | 0.984 | > 10 µM | 0.954 | > 10.2 µM | 0.945 | > 32 nM | 0.977 | > 20 µM
9 | H2369 (mesothelioma, adherent) | 0.967 | > 20 µM | 0.975 | > 10 µM | 0.934 | > 10 µM | 0.94 | > 10.2 µM | 0.495 | 1.94 nM | 0.945 | > 20 µM
10 | H2373 (mesothelioma, adherent) | 0.933 | > 20 µM | 0.975 | > 10 µM | 0.98 | > 10 µM | 0.816 | 7.61 µM | 0.816 | 23.8 nM | 0.87 | > 20 µM
11 | H2461 (mesothelioma, adherent) | 0.973 | > 20 µM | 0.983 | > 10 µM | 0.899 | > 10 µM | 0.94 | > 10.2 µM | 0.849 | > 32 nM | 0.95 | > 20 µM
12 | H2591 (mesothelioma, adherent) | 0.876 | > 20 µM | 0.968 | > 10 µM | 0.953 | > 10 µM | 0.952 | > 10.2 µM | 0.869 | > 32 nM | 0.872 | > 20 µM
13 | H2595 (mesothelioma, adherent) | 0.98 | > 20 µM | 0.925 | > 10 µM | 0.966 | > 10 µM | 0.825 | 9.74 µM | 0.66 | 6.64 nM | 0.94 | > 20 µM
14 | H2722 (mesothelioma, adherent) | 0.897 | > 20 µM | – | – | 0.918 | > 10 µM | 0.977 | > 10.2 µM | 0.739 | 11.2 nM | 0.89 | > 20 µM
15 | H2731 (mesothelioma, adherent) | 0.98 | > 20 µM | 0.971 | > 10 µM | 0.982 | > 10 µM | 0.984 | > 10.2 µM | 0.904 | > 32 nM | 0.773 | 8.9 µM
16 | H2795 (mesothelioma, adherent) | 0.954 | > 20 µM | 0.749 | 3.21 µM | 0.986 | > 10 µM | 0.896 | > 10.2 µM | 0.968 | > 32 nM | 0.687 | 4.14 µM
17 | H2803 (mesothelioma, adherent) | 0.955 | > 20 µM | – | – | 0.983 | > 10 µM | 0.985 | > 10.2 µM | 0.916 | > 32 nM | 0.841 | 17.4 µM
18 | H2804 (mesothelioma, adherent) | 0.963 | > 20 µM | – | – | 0.984 | > 10 µM | 0.95 | > 10.2 µM | 0.597 | 3.79 nM | 0.927 | > 20 µM
19 | H2818 (mesothelioma, adherent) | 0.932 | > 20 µM | – | – | 0.987 | > 10 µM | 0.988 | > 10.2 µM | 0.989 | > 32 nM | 0.973 | > 20 µM
